The target of assay [1] is SARS-CoV-2 Wuhan-Hu-1 spike pseudovirus. The assay is described as follows: pseudovirus neutralization IC50; higher = weaker neutralization. As to the method: (§1)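 Single-round luciferase reporter pseudovirus mixed with antibody dilutions and put on 293T-ACE2 cells for 48 h; signal relative to no-antibody wells, four-parameter fit.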
The target is the same in assay [2]. The assay is described as follows: pseudovirus neutralization IC90; higher = weaker neutralization. Here is the method: as §1
The target in assay [3] is SARS-CoV-2 Wuhan-Hu-1 spike receptor-binding domain. The assay is described as follows: ELISA binding EC50; higher = weaker binding; ELISA of recombinant human antibody on coated antigen, from 10 µg/ml in fourfold dilutions; four-parameter fit. On the technique in general: An ELISA detects its analyte on a solid surface through an enzyme-linked reagent.

Recombinant human monoclonal antibodies (heavy:light variable regions). ELISA EC50 on the named antigen, from 10 µg/ml down; IC50 / IC90 against spike pseudovirus on 293T-ACE2 cells, 48 h; lower = stronger. Calls: IC50 above 1,000 ng/ml = non-neutralizing; EC50 above 2,000 ng/ml = non-binder. The source prints 1000 for neutralization that was not reached; it is given as >1000 ng/ml. A few antibodies were first reported in earlier work of the same group.

B1: C2315 (protein)
chain 1: VQLVESGGGVVQPGRSLRLSCAASGFTFSSYGMHWVRQAPGKGLEWVAVISYDGSNKYYADSVKGRFTISRDNSKNTLYLQMNSLRAEDTAVYYCAKAGGAYCGGDCPSSLDYWGQGTLVTVSS
chain 2: IRMTQSPSSLSASVGDRVTITCQASQDISNYLNWYQQKPGKAPKLLIYDASNLETGVPSRFSGSGSGTDFTFTISSLQPEDIATYYCQQYDNLPRTFGQGTKVEIK
As for B1, the “pseudovirus neutralization IC50” value in assay [1] was over 1 mg/L. Besides, in assay [2], the “pseudovirus neutralization IC90” value was over 1 mg/L. Moreover, the “ELISA binding EC50” value in assay [3] was determined as 0.00364 mg/L.

B2: C2320 (protein)
chain 1: QVQLVQSGAEVKKPGASVKVSCKASGYTFISYYMHWVRQAPGQGLEWMGIINPSGGSTSYAQKLQGRVTMTTDTSTSTVYMELSSLRSEDTAVYYCARGPPPTVLTPFDFWGQGTLVTVSS
chain 2: EIVLTQSPATLSLSPGERATLSCRASQSVSSTLAWYQQKPGQAPRLLIYDASNRATGIPARFSGSGSGTDFTLTISSLEPEDFAVYYCQQRSNWPPGITFGGGTKVEIK
On to B2, for which the “pseudovirus neutralization IC50” value in assay [1] is over 1 mg/L. Also, in assay [2], the “pseudovirus neutralization IC90” value was over 1 mg/L. Moreover, the “ELISA binding EC50” value in assay [3] came out at 0.00272 mg/L.

B3: C2316 (protein)
chain 1: QVQLVESGGGVVQPGRSLRLSCAASGFTFSSYGMHWVRQAPGKGLEWVAIVWHDGSNKYYADSVQGRFTISRDNSKNTLHLQMNSLRAEDTAVYYCARGDSSGWFPLGMDVWGQGTTVTVSS
chain 2: EIVLTQSPGTLSLSPGERATLSCRASQSVSSNYLAWYQQKPGQAPRLLIYGTSNRATGIPDRFSGSGSGTDFTLTVSRLEPEDFVVYYCQQYGSSPPYTFGQGTKLEIK
For B3, the “pseudovirus neutralization IC50” value in assay [1] was 0.41 mg/L. The “pseudovirus neutralization IC90” value in assay [2] was over 1 mg/L. Further, the “ELISA binding EC50” value in assay [3] was 0.012 mg/L.

B4: C2332 (protein)
chain 1: QLQLQESGPGLVKPSETLSLTCTVSGGSISSSDYYWGWIRQPPGKGLEWIGSIYYSGNTYYNPSLKSRVTISVDTSKKQFSLKLSSVTAADTAVYYCARHGGIYYYDSSGYFFDYWGQGTLVTVSS
chain 2: QSALTQPASVSGSPGQSITISCTGTSSDVGGYNYVSWYQQHPGKAPKLMIYEVSNRRSGVSSRFSGSKSGSTASLTISGLQAEDEADYYCSSYTSTNTLVFGGGTKLTVL
Regarding B4, the “pseudovirus neutralization IC50” value in assay [1] was 0.238 mg/L. Also, the “pseudovirus neutralization IC90” value in assay [2] was over 1 mg/L. Further, in assay [3], the “ELISA binding EC50” value came out at 0.00249 mg/L.

B5: C2330 (protein)
chain 1: EVQLVESGAEVKKPGESLKISCKGSGYSFTSYWIGWVRQMPGKGLEWMGIIYPGDSDTRYSPSFQGQVTISADKSISTAYLQWSSLKASDTAMYYCAIAKYMYYDILTGYYKDGWSFDPWGQGTLVTVSS
chain 2: QSALTQPASVSGSPGQSITISCTGTSSDVGGYNYVSWYQQHPGKAPKLLIYDVNNRPSGVSNRFSGSKSGNTASLTISGLQAEDEADYYCSSYTSSSTLGVFGGGTKLTVL
Turning to B5, the “pseudovirus neutralization IC50” value in assay [1] is over 1 mg/L. Also, in assay [2], the “pseudovirus neutralization IC90” value is over 1 mg/L. Besides, the “ELISA binding EC50” value in assay [3] turned out to be 0.00661 mg/L.

B6: C2317 (protein)
chain 1: QVQLVQSGAEVKKPGASVKVSCKASGYTFTSYFMHWVRQAPGQGLEWMGLINPSGGSTTYAQKFQGRVTMTRDTSTSTVYMELSSLRSEDTAVYYCARDFIEDGPNILTGFNWFDPWGQGTLVTVSS
chain 2: EIVMTQSPATLSVSPGERATLSCRASQSVSSNLAWYQQKPGQAPRLLIYGASTRATGIPARFSGSGSGTEFTLTISSLQSEDFAVYYCQHYNNWYTFGQGTKLEIK
Consider B6, for which the “pseudovirus neutralization IC50” value in assay [1] worked out at 0.86 mg/L. Besides, the “pseudovirus neutralization IC90” value in assay [2] was over 1 mg/L. Besides, in assay [3], the “ELISA binding EC50” value came out at 0.00921 mg/L.

B7: C2314 (protein)
chain 1: EVQLVESGGGLVQPGRSLRLSCAASGFTFDDYAMHWVRQAPGKGLEWISGISWNSGSIGYADSVKGRFTISRDNAKNSLYLQMNSLRAEDTALYYCAKAHVVTVMIKGPFWFDPWGQGTLVTVSS
chain 2: EIVMTQSPATLSVSPGERATLSCRASQSVNSNLAWYQQKPGQAPRLLIYGASTRATGIPARFSGSGSGTEFTLTISSLQSEDFAVYYCQQYNNWPPGITFGQGTRLEIK
As for B7, in assay [1], the “pseudovirus neutralization IC50” value is over 1 mg/L. Moreover, the “pseudovirus neutralization IC90” value in assay [2] is over 1 mg/L. The “ELISA binding EC50” value in assay [3] turned out to be 0.00371 mg/L.

B8: C2321 (protein)
chain 1: EVQLVQSGAEVKKPGESLKISCKASGYSFTTYWIGWVRQMSGKGLEWMGIIYPGDSDTKYSPSFHGQVTISADKSISTAYLQWSSLKASDTAMYFCARRTSYYDSGGFYYLDYWGQGTLVTVSS
chain 2: DIQLTQSPSSLSASVGDRVTITCRASQSISSYLNWYQQKPGKAPKVLIYAESTLQSGVPSRFSGSGSGTDFTLTISSLQPEDFATYYCQQSYSTLALTFGGGTKVEIK
Take B8: the “pseudovirus neutralization IC50” value in assay [1] is 0.343 mg/L. Besides, the “pseudovirus neutralization IC90” value in assay [2] is over 1 mg/L. The “ELISA binding EC50” value in assay [3] amounted to 0.00196 mg/L.
